The supplement of paper PMC3334620
Over roughly 33,000 sequences, “E-score (-0.5 to 0.5)” has its median near -0.011; the highest 2% begin near 0.28. The list shows a part of the results.

Each sequence was assayed against T1, Gcr1 (UniProt P07261) (assay: PBM E-score (8-mer binding enrichment) (E-score (-0.5 to 0.5)); higher = stronger / more preferred TF binding; most listed sequences are background and not binding sites). Conditions: protein concentration: 100 nM; construct: GST-full length.
T1 sequence: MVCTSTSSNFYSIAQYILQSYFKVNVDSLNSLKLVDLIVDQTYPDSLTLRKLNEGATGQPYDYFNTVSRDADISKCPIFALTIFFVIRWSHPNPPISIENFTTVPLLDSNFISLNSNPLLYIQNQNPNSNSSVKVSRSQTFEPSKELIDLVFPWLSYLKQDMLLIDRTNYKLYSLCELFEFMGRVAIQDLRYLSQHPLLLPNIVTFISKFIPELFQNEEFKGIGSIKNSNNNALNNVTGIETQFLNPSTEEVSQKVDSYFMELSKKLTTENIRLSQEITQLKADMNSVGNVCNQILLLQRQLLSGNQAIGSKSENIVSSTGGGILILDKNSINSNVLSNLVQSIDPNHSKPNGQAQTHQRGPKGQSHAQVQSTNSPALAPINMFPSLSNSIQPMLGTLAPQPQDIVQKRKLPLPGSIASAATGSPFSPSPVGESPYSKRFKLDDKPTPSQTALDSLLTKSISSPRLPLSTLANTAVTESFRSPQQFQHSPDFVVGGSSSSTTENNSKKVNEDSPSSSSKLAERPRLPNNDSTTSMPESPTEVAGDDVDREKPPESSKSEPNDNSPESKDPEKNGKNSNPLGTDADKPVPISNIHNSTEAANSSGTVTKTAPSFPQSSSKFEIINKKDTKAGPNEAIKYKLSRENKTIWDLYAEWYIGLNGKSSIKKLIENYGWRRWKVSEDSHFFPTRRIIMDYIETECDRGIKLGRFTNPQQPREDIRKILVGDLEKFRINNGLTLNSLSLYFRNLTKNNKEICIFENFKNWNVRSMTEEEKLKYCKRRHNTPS
Method in brief: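 Each ungapped eight-base word and its reverse complement, pooled, received an E-score from the Universal PBM Analysis Suite. Underlying scans, normalised with masliner, recorded fluorescent anti-GST bound to GST-tagged yeast transcription factors. These were applied at about 100-200 nM to universal all-10-mer Agilent arrays double-stranded by primer extension.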

Sequence | PBM E-score
GTCAGACA | -0.0473
ATGCGGCC | 0.0413
CATACGCG | 0.0103
GCCATGAA | 0.102
CCCTTGCA | -0.097
GGAGACGA | 0.214
ACACGGCT | -0.0357
AATTGCTG | 0.0531
ATACCAAC | -0.00844
CACCAGAA | 0.15
TCCTAAAA | 0.27
GATGACGA | -0.098
AGGACACA | 0.0847
CTTCCGAA | 0.13
CCAGGCGA | -0.0243
ATCAGCTG | 0.197
GATCGTTA | -0.241
CCAATGAC | -0.0459
CGGCCACC | -0.0747
GCATCGAC | -0.0357
TAACCCCA | -0.0703
CATAAAGC | 0.195
GGGTTATA | -0.0602
ATACACAG | 0.115
CGGGTATC | 0.131

Sequence | PBM E-score
GCGGTCGA | 0.0164
TGGGGCAA | 0.0111
AGGAATAC | 0.0815
CTAGAAGA | 0.197
AAGCTCCA | 0.145
ACCGGCCC | -0.297
TTAGGAAA | 0.0493
CATTCCAA | 0.0418
CGCCAGAA | 0.13
ATACGGCG | 0.0898
AATTTCGC | 0.181
ATAGCATC | 0.0848
GATCCGGA | 0.226
ATATTTAG | 0.115
AGTCATGC | -0.201
CCCACGTA | 0.0365
CCGGCCGC | 0.099
CCGTACGA | -0.0864
GAAAATCA | -0.0746
CAGGACAA | 0.0779
CTCTAGGA | -0.114
CTGAAATC | 0.0723
AAAAAAGG | 0.184
AATTGTAT | 0.095
CACTTCCC | 0.0585

Sequence | PBM E-score
ATTTTGGA | 0.282
TGTCAAAA | 0.00985
ACAGTGTC | -0.0941
AGGAAATA | 0.00913
ACACTCAG | -0.129
CTTCACCA | -0.154
GTTGTGTA | -4e-05
ACTGAATC | 0.0927
GAGTCGTA | -0.113
GGCCCGTA | -0.0201
AATTCTAT | 0.0304
CCTTTGCG | -0.123
AGGAATCA | 0.144
AGCCCTGA | -0.228
AGTACTGC | -0.205
ATGTGCTG | -0.038
GTCTGTGA | -0.0354
AGGAACCA | 0.203
CTTGTATA | -0.006
CCACCCCC | -0.156
CAAGAAAG | -0.0416
CCAATCAC | -0.0358
TCTAACAA | 0.0322
TCCCGGCA | -0.0871
CGATGAGA | -0.0556

Sequence | PBM E-score
AGGGTAAC | -0.118
AGATGTAC | -0.164
ATTATCAG | 0.0753
CCTGCAAC | -0.0292
ATACAGGC | 0.223
ATTAAATA | 0.21
GCAGATGA | -0.0166
ACCAAGGC | -0.0138
CAAACCGG | 0.0689
CGCAAACG | 0.145
CGGCGCTA | -0.00295
GTATAGAC | 0.0183
AGCAGGTA | 0.0745
CCTATGTA | -0.183
CGATTCAA | -0.0533
CTTGATCA | -0.0381
CAGACCGA | 0.00453
ACGAATCT | 0.122
GCCACAAA | 0.0996
ACGGTAAC | -0.0407
AAGGTCCC | -0.00274
AGGATATC | -0.0349
ATAGTCAC | -0.204
AGTGTCCG | -0.0321
ATCCGGGA | 0.151

Sequence | PBM E-score
GCTCTGAA | -0.0275
CTCTACAC | -0.0944
AGACGAAC | 0.105
ACCAGGTC | 0.0582
GGGCTCAC | -0.096
CATGTGGA | 0.00355
ATCACACC | -0.00785
AATGTCAA | -0.0693
AGACAACC | -0.0455
CAGTTTTC | 0.0118
AGCCTGAG | -0.0534
AAAACAGG | 0.28
CAGTCAAC | -0.123
ATGCACAG | -0.166
AGGACGTA | -0.146
GGTCGGAA | -0.101
ACTTGCTA | -0.0796
GTAAGTGA | -0.183
CGATATGA | -0.00906
CCCATCGA | -0.0692
CGATACCG | -0.159
AAGTAGGA | 0.017
ACAGGTTC | -0.00159
TATGCAGA | 0.0306
GGGCTCTA | -0.034

Sequence | PBM E-score
AGCAGCCC | 0.2
ACATAAAG | -0.021
CATTAAGA | 0.00605
AATTACTA | 0.149
CATATTAC | 0.146
ACCCCCGT | -0.113
CCTTACGC | -0.188
AATTGCTA | 0.0117
CTCCTCCC | -0.131
ATTCTGGG | 0.144
CCCGCGGA | 0.0135
AAACCAAG | 0.0081
GACAGCTA | -0.113
ATGAGTCG | -0.178
AATGCTGG | -0.12
AGACTCGC | -0.263
ACGGGGCA | -0.0662
GCTGAAAC | 0.134
CATACTCC | -0.0342
AGTTGCTG | 0.223
CGCATAAG | -0.178
AAGATACG | 0.211
GCGAACGA | -0.0288
CTTCTGCA | 0.0351
ATGCGACA | -0.0309

Sequence | PBM E-score
ACACCCTC | 0.0957
GGCCGGCC | -0.0224
AATCCCGG | -0.0573
GGCAGCAA | 0.113
CTTGCGGC | -0.0202
CTCCAGGC | -0.068
TCACACAA | -0.0548
GAATCTGA | 0.0948
AACGCACG | 0.0104
ACAATTTA | 0.0791
AACTCGGA | 0.0328
AGACGTCA | -0.0882
AAGCACAT | -0.0763
CTTTCCAA | 0.117
AATCGTGT | 0.0587
AAGATGTC | -0.0157
AGTCTTAC | -0.291
ACGTCCGA | -0.138
AGCTTGCA | -0.206
AAGTTTGA | 0.131
CACGAGCC | 0.00897
GATCCGAC | -0.175
